Test results: the supplement of paper PMC12462457
Structures can show the parent of a compound that is named as a salt. ± gives the standard deviation of the averaged measurements. This is one part of the list.

Test system: OVCAR8
Assay: cell count relative to DMSO vehicle (fold change); OVCAR8 is a high-grade serous ovarian cancer line and CX-5461 an RNA polymerase I inhibitor; higher = more surviving senescent cells (less killing)
Details: senescence inducer: CX-5461 3 µM 48 h, then 6 d recovery (CX senescent), exposure time 24 h

Row | SMILES | cell count (compound dose 1 µM) | cell count (compound dose 5 µM)
1 | COC(=O)[C@H](CCSC)NC(=O)c1ccc(NC[C@@H](N)CS)cc1-c1ccccc1 [FTI-277 (hydrochloride)] | 1.08 ± 0.018 | 1.16 ± 0.14
2 | O=C1CCC(N2Cc3c(C#CCCCNC(=O)c4ccc(NC(=O)[C@@H]5NC6(CCCCC6)[C@@]6(C(=O)Nc7cc(Cl)ccc76)[C@H]5c5cccc(Cl)c5F)cc4)cccc3C2=O)C(=O)N1 (stereo not given in full) | 1.02 ± 0.033 | 1.03 ± 0.092
3 | CC[C@@H]1/C=C(\C)C[C@H](C)C[C@H](OC)[C@H]2O[C@@](O)(C(=O)C(=O)N3CCCC[C@H]3C(=O)O[C@H](/C(C)=C/[C@@H]3CC[C@@H](O)[C@H](OC)C3)[C@H](C)[C@@H](O)CC1=O)[C@H](C)C[C@@H]2OC [Ascomycin] | 0.88 ± 0.11 | 1.11 ± 0.18
4 | COc1ccc(N2C(=O)/C(=C\c3ccc([N+](=O)[O-])s3)SC2=S)cc1 | 1.03 ± 0.17 | 1.05 ± 0.16
5 | Cc1cc(Nc2cc(N3CCN(C)CC3)nc(/C=C/c3ccccc3)n2)n[nH]1 | 1.07 ± 0.052 | 0.542 ± 0.069
6 | Cc1cc(Nc2cc(N3CCN(C)CC3)nc(/C=C/c3ccccc3)n2)n[nH]1 [ENMD-2076 L-(+)-Tartaric acid] | 0.923 ± 0.12 | 0.812 ± 0.26
7 | C/C=C(/C)C(=O)O[C@H]1[C@H](OC(C)=O)[C@@]2(CO)C(CC1(C)C)C1=CCC3[C@@]4(C)CCC(O[C@@H]5O[C@H](C(=O)O)[C@@H](O[C@@H]6O[C@H](CO)[C@@H](O)[C@H](O)[C@H]6O)[C@H](O)[C@H]5O[C@@H]5O[C@H](CO)[C@@H](O)[C@H](O)[C@H]5O)[C@](C)(CO)C4CC[C@@]3(C)[C@]1(C)C[C@H]2O.C/C=C(\C)C(=O)O[C@H]1[C@H](OC(C)=O)[C@@]2(CO)C(CC1(C)C)C1=CCC3[C@@]4(C)CCC(O[C@@H]5O[C@H](C(=O)O)[C@@H](O[C@@H]6O[C@H](CO)[C@@H](O)[C@H](O)[C@H]6O)[C@H](O)[C@H]5O[C@@H]5O[C@H](CO)[C@@H](O)[C@H](O)[C@H]5O)[C@](C)(CO)C4CC[C@@]3(C)[C@]1(C)C[C@H]2O (stereo not given in full) [Escin] | 1.14 ± 0.19 | 0.951 ± 0.28
8 | COc1ccc(C2CC(c3ccccc3)=NN2c2ccc(S(N)(=O)=O)cc2)cc1 (stereo not given) | 1.02 ± 0.19 | 1.06 ± 0.061
9 | CN(C)c1cccc(-c2c3c(=O)n(-c4ccccc4Cl)[nH]c3cc(=O)n2C)c1 [Setanaxib] | 1.11 ± 0.083 | 1.06 ± 0.16
10 | CCCCOc1nc(N)c2c(n1)N(Cc1cccc(CN3CCCC3)c1)CC(=O)N2 [Vesatolimod] | 1.01 ± 0.057 | 0.992 ± 0.051
11 | CCC(Sc1nnc2c(n1)[nH]c1ccccc12)C(=O)N1c2ccccc2Sc2ccccc21 (stereo not given) [Inauhzin] | 1.1 ± 0.17 | 1.064 ± 0.0014
12 | CCCCCCCCCCCC1=C(O)C(=O)C=C(O)C1=O [Embelin] | 1.11 ± 0.21 | 0.97 ± 0.24
13 | CC(=O)N[C@H](Cc1ccc(O)cc1)C(=O)N[C@H](CCCN=C(N)N)C(=O)N[C@H](Cc1ccccc1)C(N)=O | 1.14 ± 0.15 | 1.02 ± 0.17
14 | CCCCCOC(=O)Nc1nc(=O)n([C@@H]2O[C@H](C)[C@@H](O)[C@H]2O)cc1F [Capecitabine] | 1.23 ± 0.22 | 1.01 ± 0.11
15 | CN(C)CC[C@H](CSc1ccccc1)Nc1ccc(S(=O)(=O)NC(=O)c2ccc(N3CCC(C)(C)CC3)cc2)cc1[N+](=O)[O-] | 1.09 ± 0.11 | 1.14 ± 0.023
16 | NC(=O)c1ccc(-c2cc(-c3ccc([N+](=O)[O-])cc3)nc(-c3ccco3)c2)cc1 | 1.08 ± 0.19 | 1.05 ± 0.11
17 | Nc1c(C(=O)NCc2ccc(C(=O)NCCCC3CCCCC3)cc2)cnn1-c1ccccc1 | 1.37 ± 0.29 | 1.29 ± 0.27
18 | CC(O)(P(=O)(O)O)P(=O)(O)O [Etidronic acid] | 1.04 ± 0.068 | 1.04 ± 0.057
19 | CC(C)Cc1ccc(C(C)C(=O)O)cc1 (stereo not given) | 1.04 ± 0.016 | 1.06 ± 0.11
20 | CN(C(=O)c1c(O)c2ccccc2n(C)c1=O)c1ccccc1 [Roquinimex] | 1.1 ± 0.053 | 1.05 ± 0.076
21 | Cc1ccc(S(=O)(=O)Nc2cc(-c3ccc(C#N)s3)ccc2C)cc1 | 1.18 ± 0.067 | 1.08 ± 0.067
22 | Cc1ncc(COP(=O)([O-])[O-])c(CN(CCN(CC(=O)O)Cc2c(COP(=O)([O-])O)cnc(C)c2O)CC(=O)O)c1O.[Mn].[Na+].[Na+].[Na+] | 1.01 ± 0.13 | 0.968 ± 0.076
23 | COc1ccc(C2=N[C@H](c3ccc(Cl)cc3)[C@H](c3ccc(Cl)cc3)N2C(=O)N2CCNC(=O)C2)c(OC(C)C)c1 [Nutlin-3b] | 1.07 ± 0.21 | 1.02 ± 0.098
24 | O=c1c(O)c(-c2ccc(O)c(O)c2)oc2cc(O)cc(O)c12 [Quercetin] | 1.0675 ± 0.00071 | 1.11 ± 0.31
25 | CC/C(=C(\c1ccccc1)c1ccc(OCCN(C)C)cc1)c1ccccc1 [Tamoxifen (Citrate)] | 1.1 ± 0.11 | 1.1 ± 0.14
26 | CCc1oc2ccccc2c1C(=O)c1cc(Br)c(O)c(Br)c1 | 1.13 ± 0.052 | 1.12 ± 0.013
27 | Cn1cc(-c2ccc(S(=O)(=O)n3ccc(/C=C/C(=O)Nc4ccccc4N)c3)cc2)cn1 | 1.37 ± 0.13 | 1.23 ± 0.14
28 | CCN(CCCOc1ccc2c(Nc3cc(CC(=O)Nc4cccc(F)c4)[nH]n3)ncnc2c1)CCOP(=O)(O)O [Barasertib] | 1.23 ± 0.14 | 1.2 ± 0.16
29 | CCN(CCCOc1ccc2c(Nc3cc(CC(=O)Nc4cccc(F)c4)[nH]n3)ncnc2c1)CCOP(=O)(O)O [Barasertib (AZD1152-HQPA)] | 1.2 ± 0.04 | 1.21 ± 0.018
30 | CC(C)c1cccc(C(C)C)c1NC(=O)NCC1(c2ccc(N(C)C)cc2)CCCC1 [Nevanimibe hydrochloride] | 0.994 ± 0.034 | 0.851 ± 0.016
